# The list shows a part of the results.
# How the values were obtained:
# Experiment in all cases: glycan array binding signal (z-score within array); higher = stronger binding
# Settings in all cases: glycan notation: IUPAC condensed, linker removed
# Man(b1-4)GlcNAc = molecular target: Man(b1-4)GlcNAc
# Outline: (§1)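 Columns mapping to the same glycan were averaged after glycan names were converted to IUPAC-condensed notation. The data come from 3228 arrays in the Consortium for Functional Glycomics database, limited to those with an available protein sequence. Binding is reported as a within-array Z-score averaged across arrays of one protein sequence and across linkers.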
# Neu5Ac(a2-3)Gal = molecular target: Neu5Ac(a2-3)Gal
# Outline: as §1
# [1] = molecular target: Neu5Ac(a2-3)Gal(b1-3)GalNAc
# Outline: as §1
# [2] = molecular target: Neu5Ac(a2-3)Gal(b1-3)GalNAc(b1-3)Gal(a1-4)Gal(b1-4)Glc
# Outline: as §1
# [3] = molecular target: Neu5Ac(a2-3)Gal(b1-3)GalNAc(b1-4)[Neu5Ac(a2-3)]Gal(b1-4)Glc
# Outline: as §1
# [4] = molecular target: Neu5Ac(a2-3)Gal(b1-3)GalNAc6S
# Outline: as §1
# [5] = molecular target: Neu5Ac(a2-3)Gal(b1-3)GlcNAc
# Outline: as §1
# [6] = molecular target: Neu5Ac(a2-3)Gal(b1-3)GlcNAc(b1-2)Man(a1-3)[Neu5Ac(a2-3)Gal(b1-3)GlcNAc(b1-2)Man(a1-6)]Man(b1-4)GlcNAc(b1-4)GlcNAc
# Outline: as §1
# [7] = molecular target: Neu5Ac(a2-3)Gal(b1-3)GlcNAc(b1-3)Gal(b1-3)GlcNAc
# Outline: as §1
# [8] = molecular target: Neu5Ac(a2-3)Gal(b1-3)GlcNAc(b1-3)Gal(b1-4)GlcNAc
# Outline: as §1
# [9] = molecular target: Neu5Ac(a2-3)Gal(b1-3)GlcNAc(b1-3)GalNAc
# Outline: as §1
# [10] = molecular target: Neu5Ac(a2-3)Gal(b1-3)GlcNAc6S
# Outline: as §1
# [11] = molecular target: Neu5Ac(a2-3)Gal(b1-3)[Fuc(a1-4)]GlcNAc
# Outline: as §1
# [12] = molecular target: Neu5Ac(a2-3)Gal(b1-3)[Fuc(a1-4)]GlcNAc(b1-3)Gal(b1-3)[Fuc(a1-4)]GlcNAc
# Outline: as §1
# [13] = molecular target: Neu5Ac(a2-3)Gal(b1-3)[Fuc(a1-4)]GlcNAc(b1-3)Gal(b1-4)[Fuc(a1-3)]GlcNAc
# Outline: as §1
# [14] = molecular target: Neu5Ac(a2-3)Gal(b1-3)[Neu5Ac(a2-3)Gal(b1-4)]GlcNAc
# Outline: as §1
# [15] = molecular target: Neu5Ac(a2-3)Gal(b1-3)[Neu5Ac(a2-6)]GalNAc
# Outline: as §1
# Neu5Ac(a2-3)Gal(b1-4)Glc = molecular target: Neu5Ac(a2-3)Gal(b1-4)Glc
# Outline: as §1
# [16] = molecular target: Neu5Ac(a2-3)Gal(b1-4)GlcNAc
# Outline: as §1
# [17] = molecular target: Neu5Ac(a2-3)Gal(b1-4)GlcNAc(b1-2)Man(a1-3)[GlcNAc(b1-2)Man(b1-4)GlcNAc(b1-2)Man(a1-6)]Man(b1-4)GlcNAc(b1-4)GlcNAc
# Outline: as §1
# [18] = molecular target: Neu5Ac(a2-3)Gal(b1-4)GlcNAc(b1-2)Man(a1-3)[Neu5Ac(a2-6)Gal(b1-4)GlcNAc(b1-2)Man(a1-6)]Man(b1-4)GlcNAc(b1-4)GlcNAc
# Outline: as §1
# [19] = molecular target: Neu5Ac(a2-3)Gal(b1-4)GlcNAc(b1-3)Gal(b1-3)GlcNAc
# Outline: as §1
# [20] = molecular target: Neu5Ac(a2-3)Gal(b1-4)GlcNAc(b1-3)Gal(b1-4)GlcNAc
# Outline: as §1
# [21] = molecular target: Neu5Ac(a2-3)Gal(b1-4)GlcNAc(b1-3)Gal(b1-4)GlcNAc(b1-3)Gal(b1-4)GlcNAc
# Outline: as §1
# [22] = molecular target: Neu5Ac(a2-3)Gal(b1-4)GlcNAc(b1-3)Gal(b1-4)[Fuc(a1-3)]GlcNAc
# Outline: as §1
# [23] = molecular target: Neu5Ac(a2-3)Gal(b1-4)GlcNAc(b1-3)GalNAc
# Outline: as §1
# [24] = molecular target: Neu5Ac(a2-3)Gal(b1-4)GlcNAc(b1-6)[Gal(b1-3)]GalNAc
# Outline: as §1
# [25] = molecular target: Neu5Ac(a2-3)Gal(b1-4)GlcNAc(b1-6)[Neu5Ac(a2-3)Gal(b1-3)]GalNAc
# Outline: as §1
# [26] = molecular target: Neu5Ac(a2-3)Gal(b1-4)GlcNAc6S
# Outline: as §1
# [27] = molecular target: Neu5Ac(a2-3)Gal(b1-4)[Fuc(a1-3)]GlcNAc
# Outline: as §1
# [28] = molecular target: Neu5Ac(a2-3)Gal(b1-4)[Fuc(a1-3)]GlcNAc(b1-3)Gal
# Outline: as §1
# [29] = molecular target: Neu5Ac(a2-3)Gal(b1-4)[Fuc(a1-3)]GlcNAc(b1-3)Gal(b1-4)GlcNAc
# Outline: as §1
# [30] = molecular target: Neu5Ac(a2-3)Gal(b1-4)[Fuc(a1-3)]GlcNAc(b1-3)Gal(b1-4)[Fuc(a1-3)]GlcNAc(b1-3)Gal(b1-4)[Fuc(a1-3)]GlcNAc
# Outline: as §1
# [31] = molecular target: Neu5Ac(a2-3)Gal(b1-4)[Fuc(a1-3)]GlcNAc(b1-3)GalNAc
# Outline: as §1
# [32] = molecular target: Neu5Ac(a2-3)Gal(b1-4)[Fuc(a1-3)]GlcNAc(b1-6)[Gal(b1-3)]GalNAc
# Outline: as §1
# [33] = molecular target: Neu5Ac(a2-3)Gal(b1-4)[Fuc(a1-3)]GlcNAc(b1-6)[Neu5Ac(a2-3)Gal(b1-3)]GalNAc
# Outline: as §1
# [34] = molecular target: Neu5Ac(a2-3)Gal(b1-4)[Fuc(a1-3)]GlcNAc6S
# Outline: as §1
# [35] = molecular target: Neu5Ac(a2-3)Gal6S(b1-4)GlcNAc
# Outline: as §1
binder,measurement,setting,value
"SAG3 (Toxoplasma gondii), Q9BJ39 (protein) MQLWRRRAAGPASLGRQSLPLGCFFAAFGLCVLSAILGTGERGLFVAAGNSRRKITYFGTLTQKAPNWYRCSSTRAKEEVVGHVTLNKEHPDMTIECVDDGLGGEFLPLEGARSSYPRVCHIDAKDQDDCERNRGFLTDYIPGAKQYWYKIEKVEQNGEQSVLYKFTVPWILLPPAKQRYKVGCRYPNHEYCFVEVTVEPTPPMVEGKRVTCGYSESGPVNLEVDLSKNANFIEIRCGEQHHPQPSTYTLQYCSGDSVDPQKCSPQSLTNIFYDYSSSWWKGKLNGPDGATLTIPPGGFPEEDKSFLVGCSLTVDGPPFCNVKVRVAGNPRKWERGGGGHPGSGGLQPGTDGETQAGTGSSAGASSRMASVALAFLLGLLVHVAA",glycan array binding signal (z-score),Man(b1-4)GlcNAc,-0.301
same,glycan array binding signal (z-score),Neu5Ac(a2-3)Gal,0.268
same,glycan array binding signal (z-score),[1],-0.17
same,glycan array binding signal (z-score),[2],-0.043
same,glycan array binding signal (z-score),[3],-0.184
same,glycan array binding signal (z-score),[4],-0.559
same,glycan array binding signal (z-score),[5],-0.331
same,glycan array binding signal (z-score),[6],0.056
same,glycan array binding signal (z-score),[7],0.436
same,glycan array binding signal (z-score),[8],-0.148
same,glycan array binding signal (z-score),[9],-0.032
same,glycan array binding signal (z-score),[10],-0.191
same,glycan array binding signal (z-score),[11],0.21
same,glycan array binding signal (z-score),[12],0
same,glycan array binding signal (z-score),[13],-0.301
same,glycan array binding signal (z-score),[14],-0.698
same,glycan array binding signal (z-score),[15],0.254
same,glycan array binding signal (z-score),Neu5Ac(a2-3)Gal(b1-4)Glc,-0.168
same,glycan array binding signal (z-score),[16],-0.125
same,glycan array binding signal (z-score),[17],0.28
same,glycan array binding signal (z-score),[18],-0.319
same,glycan array binding signal (z-score),[19],-0.226
same,glycan array binding signal (z-score),[20],-0.053
same,glycan array binding signal (z-score),[21],0.226
same,glycan array binding signal (z-score),[22],-0.126
same,glycan array binding signal (z-score),[23],-0.304
same,glycan array binding signal (z-score),[24],-0.412
same,glycan array binding signal (z-score),[25],0.087
same,glycan array binding signal (z-score),[26],-0.315
same,glycan array binding signal (z-score),[27],-0.439
same,glycan array binding signal (z-score),[28],-0.548
same,glycan array binding signal (z-score),[29],0.616
same,glycan array binding signal (z-score),[30],-0.31
same,glycan array binding signal (z-score),[31],16
same,glycan array binding signal (z-score),[32],3.05
same,glycan array binding signal (z-score),[33],2.02
same,glycan array binding signal (z-score),[34],-0.106
same,glycan array binding signal (z-score),[35],0.439

# From the supplement of paper PMC8728848
